Kd data for 1 molecule are collected here from paper PMC9596381 (2022).

Holding throughout (assay): SPR
The target in test [1] is rat Unc5D ectodomain (rUnc5D^ecto) (rat, UniProt F1LW30 31-382, biotin on the Avi-tag where immobilised).
In test [2] the target is mouse Unc5A ectodomain, residues 1-359 (mUnc5A^ecto) (mouse, UniProt Q8K1S4 26-359, biotin on the Avi-tag).
Test [3] addresses Unc5B ectodomain used in SPR (Unc5B^ecto) ( (human or mouse cDNA cloned), UniProt Q8K1S3 27-377, biotin on the Avi-tag).
UniProt Q8K1S3, sequence (Q8K1S3 other isoform, or with tags, fused parts or gaps): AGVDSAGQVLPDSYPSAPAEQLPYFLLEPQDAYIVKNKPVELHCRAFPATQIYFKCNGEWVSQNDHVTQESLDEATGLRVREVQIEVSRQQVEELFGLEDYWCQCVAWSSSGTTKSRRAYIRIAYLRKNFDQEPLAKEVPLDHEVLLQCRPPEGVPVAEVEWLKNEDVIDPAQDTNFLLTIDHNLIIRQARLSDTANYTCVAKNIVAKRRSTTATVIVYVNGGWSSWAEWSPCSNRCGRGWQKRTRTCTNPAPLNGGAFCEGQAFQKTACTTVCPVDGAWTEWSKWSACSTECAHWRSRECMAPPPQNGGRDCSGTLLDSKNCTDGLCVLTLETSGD

UniProt Q8K1S4, sequence (Q8K1S4 26-359): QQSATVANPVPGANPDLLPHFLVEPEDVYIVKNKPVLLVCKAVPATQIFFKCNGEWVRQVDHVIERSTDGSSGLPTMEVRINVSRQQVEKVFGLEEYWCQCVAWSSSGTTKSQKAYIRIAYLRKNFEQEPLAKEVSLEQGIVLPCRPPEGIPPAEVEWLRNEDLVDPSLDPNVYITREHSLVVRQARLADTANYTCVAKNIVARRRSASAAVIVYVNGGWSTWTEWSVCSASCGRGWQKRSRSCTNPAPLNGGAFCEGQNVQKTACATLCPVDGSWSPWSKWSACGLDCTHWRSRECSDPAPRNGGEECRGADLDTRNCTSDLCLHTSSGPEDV
UniProt F1LW30, sequence (F1LW30 31-382): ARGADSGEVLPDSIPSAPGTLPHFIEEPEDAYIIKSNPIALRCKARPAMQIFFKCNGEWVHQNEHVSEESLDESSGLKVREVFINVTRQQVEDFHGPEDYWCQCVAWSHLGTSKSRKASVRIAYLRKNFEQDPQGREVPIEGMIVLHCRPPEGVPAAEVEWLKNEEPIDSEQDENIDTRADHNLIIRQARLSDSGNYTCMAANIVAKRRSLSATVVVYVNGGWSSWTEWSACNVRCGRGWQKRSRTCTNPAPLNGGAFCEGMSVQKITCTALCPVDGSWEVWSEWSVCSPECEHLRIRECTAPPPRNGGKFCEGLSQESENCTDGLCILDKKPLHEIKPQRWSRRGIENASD

B1: human glypican-3 core domain, […] (hGPC3^core) (domain or fragment)
chain: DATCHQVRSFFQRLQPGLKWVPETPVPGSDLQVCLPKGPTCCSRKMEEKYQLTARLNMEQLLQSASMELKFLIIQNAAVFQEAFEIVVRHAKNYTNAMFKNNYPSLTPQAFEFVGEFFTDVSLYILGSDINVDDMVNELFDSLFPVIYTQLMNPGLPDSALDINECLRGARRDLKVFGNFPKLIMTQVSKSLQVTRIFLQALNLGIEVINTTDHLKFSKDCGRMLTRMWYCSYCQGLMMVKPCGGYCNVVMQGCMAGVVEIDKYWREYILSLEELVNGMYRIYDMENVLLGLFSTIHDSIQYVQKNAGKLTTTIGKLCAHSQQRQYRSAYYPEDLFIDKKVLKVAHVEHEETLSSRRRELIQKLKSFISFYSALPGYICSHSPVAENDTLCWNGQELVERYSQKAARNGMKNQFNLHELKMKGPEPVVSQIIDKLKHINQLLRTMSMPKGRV
modifications: N-linked glycans at N124 and N241
Usually Kd stands for the free concentration of one partner at which half of the binding sites on the other are occupied at equilibrium, for simple one-to-one binding. A high value points to a looser complex. For B1, the figures for the Kd in test [1], in test [2] and in test [3] were 366 nM, 886 nM and 369 nM, respectively.
